Measured values from publication PMC4336329 (PLoS ONE, 2015).
The whole screen tested about 310,000 compounds, of which about 14,000 (4.5%) showed an effect of 50% or more. The effect is printed as a negative number. Some of the results follow.

Target: human ether-à-go-go-related gene (hERG) potassium channel (human, UniProt Q12809)
Test: primary screen, population patch clamp on CHO cells stably expressing hERG
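Also: peak tail current of the secondary pulse compared with the same well before compound.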

human ether-à-go-go-related gene (hERG) potassium channel, sequence (Q12809 whole entry, looked up): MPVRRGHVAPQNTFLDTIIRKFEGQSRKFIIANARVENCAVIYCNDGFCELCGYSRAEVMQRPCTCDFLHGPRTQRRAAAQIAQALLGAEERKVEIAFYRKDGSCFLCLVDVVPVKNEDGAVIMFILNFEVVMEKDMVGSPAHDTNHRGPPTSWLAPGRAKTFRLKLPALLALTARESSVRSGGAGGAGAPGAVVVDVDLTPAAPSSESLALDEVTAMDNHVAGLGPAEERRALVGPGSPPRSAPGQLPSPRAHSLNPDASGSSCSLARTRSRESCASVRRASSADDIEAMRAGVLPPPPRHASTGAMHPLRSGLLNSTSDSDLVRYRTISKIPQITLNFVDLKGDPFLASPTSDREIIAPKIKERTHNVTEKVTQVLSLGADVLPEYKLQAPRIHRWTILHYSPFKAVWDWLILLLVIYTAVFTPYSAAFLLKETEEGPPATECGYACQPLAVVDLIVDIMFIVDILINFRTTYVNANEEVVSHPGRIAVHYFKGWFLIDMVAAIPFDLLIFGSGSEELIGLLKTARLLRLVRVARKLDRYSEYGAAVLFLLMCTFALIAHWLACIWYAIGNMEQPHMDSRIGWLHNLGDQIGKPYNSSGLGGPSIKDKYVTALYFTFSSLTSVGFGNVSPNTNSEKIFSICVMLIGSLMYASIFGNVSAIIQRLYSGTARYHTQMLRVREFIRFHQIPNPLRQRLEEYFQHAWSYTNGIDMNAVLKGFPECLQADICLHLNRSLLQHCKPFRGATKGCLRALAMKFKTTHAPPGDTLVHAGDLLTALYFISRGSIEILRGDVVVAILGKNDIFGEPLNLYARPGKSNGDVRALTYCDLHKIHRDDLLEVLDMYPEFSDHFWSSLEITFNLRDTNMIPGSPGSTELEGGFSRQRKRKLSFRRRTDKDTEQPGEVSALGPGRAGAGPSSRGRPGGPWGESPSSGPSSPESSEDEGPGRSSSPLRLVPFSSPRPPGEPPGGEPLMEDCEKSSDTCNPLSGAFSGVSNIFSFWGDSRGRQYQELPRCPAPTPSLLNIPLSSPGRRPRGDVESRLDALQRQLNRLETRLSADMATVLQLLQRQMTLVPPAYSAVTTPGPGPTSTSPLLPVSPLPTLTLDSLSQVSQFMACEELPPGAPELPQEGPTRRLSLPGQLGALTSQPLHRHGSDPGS

Point of comparison: `C=CCn1c(SCCCCCC)nc(O)cc1=O`, “hERG current change (%, negative = inhibition) at 10uM” value -4%. Against it:
- CCN1CCc2nc(NC(=O)c3cc(F)c(F)cc3Cl)sc2C1 — lower, -34.2%
- COc1ccc(C(=O)N2CCCC2)cc1S(=O)(=O)N1CCC(C)CC1 — higher, 5.33%
- COc1cc(NC(=S)NCCCN2CCOCC2)c(OC)cc1Cl — lower, -12.2%
- Cc1cccc(CS(=O)(=O)c2ncc(Cl)c(C(=O)NCc3ccc4c(c3)OCO4)n2)c1 — higher, 0.86%
- O=C(O)COCC(=O)Nc1ccc(-n2nc(C(F)(F)F)cc2-c2cccs2)cc1 — higher, 20.4%
- Cc1cc(-c2ccccc2)nc(N(C)NC(=O)c2c(F)cccc2F)c1S(C)(=O)=O — lower, -26.1%
- Cc1nnsc1S(=O)c1ccc(F)cc1 (stereo not shown) — higher, 20.3%
- O=C(Cc1csc(NC(=O)c2ccccc2)n1)NO — higher, 8.93%
- COc1ccc(NC(=S)N2CCC(N(C)CC3CCCO3)CC2)cc1 (stereo not shown) — lower, -17.4%
- CCOCCCN1C(=O)C2C(C(=O)Nc3ccc(OCC)cc3)C3C=CC2(O3)C1C(=O)NC1CCCCC1 (stereo not shown) — lower, -72.8%
- O=c1c(Cc2ccc(Cl)cc2)c(O)ccn1Cc1cccc(Cl)c1 — higher, 7.27%
- CC1CCc2sc(C(=O)NCC(C)(C)N3CCOCC3)cc2C1 (stereo not shown) — lower, -32.6%
- O=[N+]([O-])c1cc(C(F)(F)F)ccc1NCCc1ccccn1 — lower, -40%
- CCOC(=O)c1ccc(NC(=O)CCS(=O)(=O)c2ccc(Br)s2)cc1 — higher, 9.92%
- Cc1ccc(NC(=S)N=Nc2c(O)n(C)c3ccc(S(=O)(=O)N4CCOCC4)cc23)cc1C — higher, 10.9%
- CC(C)NC(=S)N1CCN(C(c2ccccc2)c2ccccc2)CC1 — lower, -34.7%
- CSc1ccccc1NC(=O)CN(C)CC(=O)NCC(=O)Nc1ccc(F)cc1 — lower, -17.1%
- COc1ccccc1N1C(C)=CC(=C(C#N)c2nc3ccccc3s2)C=C1C — higher, 3.3%
- COc1ccc(N2C(=O)N[C@@H](Cc3ccccc3)C2=O)cc1OC — higher, 15.1%
- CC1CCCCN1C(=O)c1c([N+](=O)[O-])cnn1C (stereo not shown) — higher, 18.7%
- N#C/C(=C(/O)CN1CCOCC1)c1nc2ccccc2s1 — higher, 13.8%
- O=C(NCCc1ccc(F)cc1)c1cc([N+](=O)[O-])ccc1N1CCOCC1 — lower, -71.4%
- N=c1c(S(=O)(=O)c2ccc(Cl)cc2)cc2c(=O)n3ccccc3nc2n1Cc1ccco1 — higher, 13.1%
- O=C(Nc1cccnc1)OC1CCCCC1 — higher, 0.581%
- Cc1ccc(S(=O)(=O)N2CCN(C(=O)c3ccc(N4CCCCC4)c([N+](=O)[O-])c3)CC2)cc1 — lower, -10.2%
- COc1cc(C#N)ccc1OCC(=O)c1ccc2c(c1)OCCO2 — lower, -44.1%
- CCc1ccc(-c2cc(C(=O)N/N=C/c3c[nH]c4ccccc34)[nH]n2)cc1 — higher, 5.65%
- C/C(=N\NC(=O)c1ccc(O)cc1)c1cc2ccccc2o1 — lower, -50.3%
- COc1ccc(CNc2ncnc3ccccc23)cc1 — higher, 21.7%
- CCn1c2ccccc2c2cc(NC(=O)c3ccc([N+](=O)[O-])cc3)ccc21 — higher, 3.25%
- CCCc1cc(NC(=O)COC(=O)c2nccnc2N)n(-c2ccccc2)n1 — lower, -22.4%
- O=C(CSc1nnc2nnc3ccccc3n12)N1CCOCC1 — higher, 19.5%
- Cc1ccc(Nc2nc(NCc3ccco3)c3ccccc3n2)cc1.Cl — higher, 16.9%
- O=C(Cn1nc(-c2ccccc2)c2ccccc2c1=O)NCCN1CCOCC1 — higher, 5.43%
- CCOc1cccc(CN2CCCC(C(=O)c3cccc(C(F)(F)F)c3)C2)c1O (stereo not shown) — lower, -67.9%
- CC(C)NC(=O)NC(=O)COC(=O)/C=C/c1ccc2c(c1)OCO2 — higher, 5.94%
- Cc1ccccc1OCCNC(=O)c1ccc2ccccc2n1 — lower, -20.8%
- Cc1cc(C)cc(NC(=O)CN2CCCN(S(=O)(=O)c3ccc(Br)s3)CC2)c1 — lower, -6.01%
- CC(=O)NCC(=O)N(C)C(C(=O)Nc1ccc(C(C)C)cc1)c1ccccc1 (stereo not shown) — higher, 2.34%
- O=C(C1=C(O)C(=O)N(Cc2ccco2)C1c1ccccc1F)c1cccs1 (stereo not shown) — higher, 10.6%
- COC(=O)Cn1c(=NC(=O)CSC(C)=O)sc2ccccc21 — lower, -12.2%
- CCOC(=O)CC(=O)CSc1nc2c(cc1C#N)CCC2 — higher, 14.5%
- COC(=O)[C@H](CCSC)NC(=O)NC1CC1 — higher, 23%
- NC(=O)CSc1nnc(NC(=O)c2ccc3ccccc3c2)s1 — lower, -6.24%
- CC(=O)Nc1ccc(CN2CCc3c([nH]c4ccccc34)C2c2ccccn2)cc1 (stereo not shown) — lower, -38.5%
- COC(=O)C1CCN(CCCOc2ccc(CN3CCN(c4ccc([N+](=O)[O-])cc4)CC3)cc2)CC1 — lower, -74.3%
- COCC1CCN(Cc2cn(C)nc2-c2cccc(Cl)c2)C1 (stereo not shown) — higher, -2.21%
- CC1=CC(C)(C)NC(=S)N1c1cccc(C)c1 — higher, 4.62%
- CCOC(=O)N1CCN(c2cc(N3CCOCC3)c(F)cc2[N+](=O)[O-])CC1 — lower, -18.2%
- CC(C)Oc1ccc(C(=O)Nc2ccc(S(=O)(=O)N3CCN(C)CC3)cc2)cc1 — higher, 4.77%
- Cc1cc(C)cc(Nc2cnn(C34CC5CC(CC(CC(=O)O)(C5)C3)C4)c(=O)c2Cl)c1 — higher, 5.39%
- Cn1c(N)c(C(=O)CSc2nnc(-c3c[nH]c4ccccc34)n2C2CC2)c(=O)[nH]c1=O — higher, 5.81%
- Cn1c(CN2CCOCC2)nc2cc(NC(=O)c3ccccc3Cl)ccc21 — lower, -10.4%
- CC1(C)Cc2nc(N3CCCC3)c(C#N)cc2CO1 — lower, -6.01%
- COc1ccc(CSCC(=O)N/N=C/c2ccc(OCC(=O)N3CCCCC3)cc2)cc1 — higher, 10.2%
- CCOC(=O)N1CCN(C(=O)CCn2nc(-c3ccc(Cl)cc3)ccc2=O)CC1 — lower, -46.2%
- COC(=O)C1=NN(C(=O)c2cccc(Cl)c2)C(O)(C(C)(C)C)C1 (stereo not shown) — higher, 8.11%
- CN(Cc1nc2ccccc2c(=O)[nH]1)C(=O)c1ccc(NC(=O)CSc2nnnn2C)cc1 — higher, 5.42%
- Cc1ccc(OCCCCn2c(CO)nc3ccccc32)cc1 — lower, -14.6%
- CN=C1S/C(=C\c2cccc(Cl)c2Cl)C(=O)N1C — higher, -2.41%
- O=C(c1ccccc1)N1CCOC12CCN(c1ncc(C(F)(F)F)cc1Cl)CC2 — higher, 20.8%
- O=C1CCc2cc(S(=O)(=O)NCc3ccccc3Cl)cc3c2N1CC3 — lower, -12.9%
- COc1ccccc1Nc1nc(-c2ccccc2)nc2ccccc12 — higher, 23.5%
- O=C1CCCC2=C1C(c1ccc(O)cc1)c1c(ccc3ccccc13)N2 (stereo not shown) — lower, -23.9%
- C[N+]12CCC(CC1)C(C(O)(c1cccc(Cl)c1)c1cccc(Cl)c1)C2.[I-] (stereo not shown) — higher, 13.6%
- COc1ccc(S(=O)(=O)N(CCCN2CCOCC2)Cc2ccc(OC)c(OC)c2)cc1 — lower, -39.9%
- O=S(=O)(Nc1ccccc1Cl)c1ccc(-c2ccccn2)s1 — higher, 10.1%
- CC(C)(C)Nc1nc(NCc2cccnc2)nc(N2CCOCC2)n1 — higher, 4.02%
- COc1cc(/C=N/N=C(\N)c2nonc2N)ccc1O — higher, 5.38%
- Cc1ccccc1CN1CCN(CC(=O)NCc2ccccc2)C1=O — higher, 8.69%
- Cc1ccc(/C=C/C2=Cc3c(sc(NC(=O)CSc4n[nH]c(N)n4)c3C#N)C(C)(C)C2)o1 — higher, 23.6%
- COc1ccc(-c2cc(=O)oc3cc(OCC(=O)N(C)C)ccc23)cc1 — lower, -26.1%
- C/C(CC(=O)Nc1ccc(C)c(Cl)c1)=N\NC(=O)c1ccccn1 — higher, 17.3%
- Cc1ccc(NC(=S)N2C3CCCC2CC(NC(=O)C2CC2)C3)cc1C (stereo not shown) — lower, -8.35%
- CC1CN(CC(O)COc2ccc(C(C)C)cc2)CC(C)O1.Cl (stereo not shown) — lower, -14.3%
- COc1cc(/C=N/Nc2nc3ccccc3s2)cc([N+](=O)[O-])c1O — lower, -6.74%
- S=c1[nH]nc(-c2cccnc2)n1C1CCCCC1 — higher, 16.5%
- COC(=O)CCCC1=CC2=CC(=O)C(C)(OC(=O)c3cccs3)C(=O)C2=CN1CCc1ccccn1 (stereo not shown) — higher, 5.1%
- CCCCn1c(N)c(N(CC(C)C)C(=O)C2=COCCO2)c(=O)[nH]c1=O — higher, 5.08%
- Cc1ccc(C)n1-c1ccncc1 — higher, -2.02%
- O=C(NCCN1CCCC1)c1ccc2c(=O)n(CCc3ccccc3)c(=O)[nH]c2c1 — higher, 1.23%
- COc1ccc(C2CC(c3ccccc3OC(C)=O)=NN2C(C)=O)cc1 (stereo not shown) — lower, -6.31%
- Cn1cc(C(=O)OCC(=O)N2CCCCC2)c2ccccc21 — higher, 10.2%
- CC1N=C(c2ccccc2Cl)c2cc(Br)ccc2NC1=O (stereo not shown) — lower, -25.1%
- CC(=O)N1CCN(c2ccc(NC(=O)c3ccc(Cl)c(Cl)c3)cc2)CC1 — lower, -13.3%
- COc1ccc(Nc2nc(C)cc(C)c2C(N)=O)cc1OC — higher, 9.1%
- CCc1nnc(NC(=O)CCC(=O)N2CCN(c3ccccn3)CC2)s1 — higher, 2.11%
